Assay results published in PubChem BioAssay AID488969 (Vanderbilt High Throughput Screening Facility, 2010).
Whole data set: some 110,000 compounds, median “z-score” near -0.1, cut for the highest 2% near 2. The list shows a part of the results. The source made the active and inactive calls.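 Rule for the calls: active = z-score in the third read window above 3 or below -3; inactive = the rest.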

These compounds were tested against Metabotropic glutamate receptor 8 (Rattus norvegicus) (UniProt P70579) (assay: rat mGluR8 modulators via GIRK flux, primary screen, cell-based, thallium flux, HTS (AID 488969)). Details: HEK293 rat mGluR8, GIRK (G protein-gated inwardly rectifying potassium channel) thallium flux, FluoZin2; at 10 µM; stronger effect = higher value; submaximal glutamate (EC20) added with thallium.
UniProt P70579, sequence (P70579 whole entry, looked up): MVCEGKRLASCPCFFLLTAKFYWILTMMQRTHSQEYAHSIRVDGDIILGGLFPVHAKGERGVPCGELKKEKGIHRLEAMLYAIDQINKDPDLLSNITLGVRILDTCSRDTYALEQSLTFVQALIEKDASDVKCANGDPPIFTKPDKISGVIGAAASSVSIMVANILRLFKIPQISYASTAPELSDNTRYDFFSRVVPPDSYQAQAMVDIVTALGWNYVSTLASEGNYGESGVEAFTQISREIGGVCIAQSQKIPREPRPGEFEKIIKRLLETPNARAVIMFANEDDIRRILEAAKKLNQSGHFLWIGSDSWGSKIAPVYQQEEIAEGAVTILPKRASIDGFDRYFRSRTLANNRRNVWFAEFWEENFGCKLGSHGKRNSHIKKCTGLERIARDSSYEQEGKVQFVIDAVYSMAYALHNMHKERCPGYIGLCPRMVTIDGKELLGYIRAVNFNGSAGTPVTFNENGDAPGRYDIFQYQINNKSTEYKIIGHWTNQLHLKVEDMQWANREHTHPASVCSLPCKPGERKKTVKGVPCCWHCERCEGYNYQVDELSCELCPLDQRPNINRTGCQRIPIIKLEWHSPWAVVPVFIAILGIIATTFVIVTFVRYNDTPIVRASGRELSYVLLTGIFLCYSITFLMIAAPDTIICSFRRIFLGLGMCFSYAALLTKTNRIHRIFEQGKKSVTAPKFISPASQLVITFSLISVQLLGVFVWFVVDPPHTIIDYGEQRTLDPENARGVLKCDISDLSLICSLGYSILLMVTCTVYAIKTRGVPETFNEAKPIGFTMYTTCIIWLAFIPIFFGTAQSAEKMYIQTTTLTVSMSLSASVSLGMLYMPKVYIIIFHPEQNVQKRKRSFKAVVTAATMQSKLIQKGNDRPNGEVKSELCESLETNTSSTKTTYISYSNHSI
With `COCCn1c(C)cc(C(=O)CSc2nc3nc(C)cc(C)n3n2)c1C` the z-score was -0.117.
For `COc1ccc(C(=O)NCc2cccnc2)cc1S(=O)(=O)N1CCOCC1`, the z-score was 0.714.
Work on `CCN(CC)CCCOC(=O)C1(c2ccccc2)CCCC1` yielded a z-score of -0.296.
For `COc1ccccc1C1C(C(N)=O)=C(C)Nc2nc(-c3ccccc3Cl)nn21` (configuration not stated), the z-score was 0.966.
In the case of `Cc1[nH]c2ccccc2c1C(=O)CSc1ncn[nH]1`, the z-score is reported as 0.379.
`Cc1cc(C)cc(NC(=O)N2CCC(c3nc4ccccc4o3)CC2)c1` showed a z-score of -0.199.
`COC(=O)c1sc(N)nc1C(C)(C)C` was tested, and the z-score was -0.167.
`Cc1cc(=O)[nH]c(SCC(=O)Nc2ccc(Cl)cn2)n1` was tested, and the z-score was -0.129.
Work on `Cc1sc2nc(CN3CCOCC3)nc(NCCc3ccccc3)c2c1C` yielded a z-score of -0.888.
Work on `COc1ccc(C(=O)NC(C)c2cc(OC)c(OC)cc2Br)cc1` (configuration not stated) yielded a z-score of 0.0958.
For `O=C(OCCCN=C1NS(=O)(=O)c2ccccc21)c1ccc(F)cc1`, the z-score was 0.0302.
`C=CCOc1nc2c(c(=O)n(Cc3ccc(Cl)c(Cl)c3)c(=O)n2C)n1C` was tested, and the z-score was 0.181.
Work on `Cc1ccc2cc(CN(Cc3ccco3)C(=O)C3CCCCC3)c(=O)[nH]c2c1C` yielded a z-score of -0.462.
For `CCOc1ccc(-c2cnc(SCC(N)=O)nc2N)cc1`, the z-score was -0.114.
For `N#CCc1nc2n(n1)Cc1ccccc1-2`, the z-score was -0.162.
`O=C(c1cccs1)N1CCC(c2ccccc2)C1` (configuration not stated) was tested, and the z-score was -0.355.
With `FC(F)(F)c1nc2ccccc2nc1N/N=C\c1ccccc1` the z-score was 0.3.
In the case of `CNCc1ccccc1OCC(=O)Nc1ccccc1OC`, the z-score is reported as 0.00756.
Compound `COc1cc(C=C(C(C)=O)C(C)=O)ccc1O` has a z-score of -0.241.
`O=P(O)(CN1CCCCCC1)CN1CCCCCC1` gave a z-score of 1.73.
In the case of `CCOc1ccc(Br)cc1S(=O)(=O)Nc1ccc(C(=O)Nc2ccc(C)cc2)cc1`, the z-score is reported as 0.0526.
`CSc1sc(C)cc1C1C(C#N)=C(N)N(c2cccnc2)C2=C1C(=O)CC(C)(C)C2` (configuration not stated) showed a z-score of 0.694.
In the case of `O=C(NCC(c1cccnc1)N1CCN(c2ccc(F)cc2)CC1)C1CCCCC1` (configuration not stated), the z-score is reported as 0.396.
`CCCCn1c(SCC(=O)Nc2cc(C)[nH]n2)nc2ccsc2c1=O` gave a z-score of -0.528.
In the case of `CCOC(=O)N1CCN(c2c(N3CCC(N4CCCCC4)CC3)c(=O)c2=O)CC1`, the z-score is reported as -0.197.
For `CC1(C)CC(=O)c2cnc(N3CCN(c4ccccc4)CC3)nc2C1`, the z-score was 1.09.
Work on `CC(=O)NCCc1ccc(S(=O)(=O)N(C)C2CCS(=O)(=O)C2)cc1` (configuration not stated) yielded a z-score of 0.0497.
`O=C(Cn1cnc2c(cnn2-c2ccccc2)c1=O)Nc1ccc(S(=O)(=O)N2CCOCC2)cc1` was tested, and the z-score was -0.156.
In the case of `C=CCNC(=O)CSc1nc2cc(C(=O)OCC)ccc2n1CC`, the z-score is reported as -0.074.
With `Brc1cnc(N2CCCC2)nc1N1CCCCC1` the z-score was -0.0143.
Compound `CC(C)CCNC(=O)CNC(=S)N(Cc1ccccc1)Cc1cccnc1` has a z-score of 0.196.
`O=C(CSc1ccc2nnc(-c3ccc(Cl)cc3)n2n1)N1CCCc2ccccc21` gave a z-score of 0.00121.
With `COCCn1c(-c2cccc([N+](=O)[O-])c2)nc2c1c(=O)[nH]c(=O)n2Cc1ccccc1` the z-score was -0.444.
For `COc1ccc(S(=O)(=O)N(CC(=O)O)Cc2ccccc2)cc1OC`, the z-score was 0.601.
In the case of `COc1cc(-c2noc(-c3ccccc3C(=O)NCc3ccco3)n2)cc(OC)c1OC`, the z-score is reported as -0.342.
`CCN(CC)c1ccc(/C=N/n2c(=S)[nH]nc(C)c2=O)cc1` gave a z-score of 0.495.
`CCN(CC)C(=O)c1sc(NC(=O)C(Sc2ccccc2)c2ccccc2)c(C(=O)OC(C)C)c1C` (configuration not stated) showed a z-score of -0.0795.
Compound `CC(/C=C/c1ccccc1)=N\NC(=O)c1ccncc1` has a z-score of -0.0615.
`O=C(O)CCCCCNc1nc2ncn(Cc3ccccc3)c2c(=O)[nH]1` showed a z-score of -0.725.
`Cn1c2ccccc2c2c(C(=O)NCc3ccco3)cn(C3CCCCC3)c(=O)c21` gave a z-score of -0.469.
With `CC(=C/C(=O)O)/C(=C/c1ccccc1)C(=O)O` the z-score was -0.139.
`COc1ccccc1-c1cc(C(=O)Nc2sc3c(c2C#N)CCC(C)C3)c2ccccc2n1` (configuration not stated) gave a z-score of 1.94.
`Cc1ccc(N2CC(C(=O)Nc3ccccc3C(=O)NC3CCCCC3)CC2=O)cc1C` (configuration not stated) was tested, and the z-score was -1.83.
`COc1ccc(-c2nc(N)n[nH]2)cc1OC` showed a z-score of 1.23.
Compound `CCCCN(Cc1cc2cc(OC)ccc2[nH]c1=O)C(=O)c1ccco1` has a z-score of -0.346.
`CN(CC(=O)Nc1ccc(N2CCOCC2)cc1)CC(=O)Nc1ccccc1C#N` showed a z-score of -0.249.
With `CCOC(=O)C1CCN(Cc2c(F)cccc2Cl)CC1` the z-score was -0.196.
In the case of `COCc1nc2ccccc2n1Cc1cccc(C)c1`, the z-score is reported as -0.395.
Work on `CCC(=O)Nc1ccc(C(=O)Nc2ccc3c(c2)OCO3)cc1` yielded a z-score of -0.396.
Compound `O=C(COC(=O)CC(c1ccccc1)c1ccccc1)Nc1c(F)cccc1F` has a z-score of 0.185.
For `CCC(Oc1ccc2c(c1)C(=O)CC(C)(C)O2)C(=O)NCCN1CCCCCC1` (configuration not stated), the z-score was -0.771.
`CCOc1ccc2ccccc2c1/C=N\NC(=O)OC` gave a z-score of 0.00163.
Work on `CC1(C)CN(c2ccccc2)N(C(=O)c2ccc(C#N)cc2)C1=O` yielded a z-score of -0.0177.
In the case of `CCOc1cc2[nH]c(=S)n(C(C)C)c(=O)c2cc1OCC`, the z-score is reported as active: 9.84.
`CCOC(=O)c1sc2ncnc(N3CCN(c4ccc(OC)cc4)CC3)c2c1C` was tested, and the z-score was -0.164.
In the case of `Cc1onc(-c2ccccc2)c1C(=O)NCCc1c[nH]c2ccccc12`, the z-score is reported as -0.024.
Work on `COC(=O)c1cc(NS(=O)(=O)c2ccc(N3CCOCC3)c(NC(C)=O)c2)cc(C(=O)OC)c1` yielded a z-score of -0.248.
With `CC(C)N1CC(C(=O)O)CC1=O` (configuration not stated) the z-score was -0.0306.
In the case of `Cn1c(SCC(=O)Nc2ccccc2F)nnc1-c1ccc(S(=O)(=O)N2CCOCC2)cc1`, the z-score is reported as 1.5.
For `COc1cc(-c2nc3oc4ccccc4c(=O)c3c(=O)n2Cc2ccco2)cc(OC)c1OC`, the z-score was -0.0137.
`CC(Nc1nc2ncn(Cc3ccccc3)c2c(=O)[nH]1)C(=O)O` (configuration not stated) showed a z-score of 0.0134.
`O=C(CCc1ccccc1)NC(=S)Nc1cc(C(F)(F)F)ccc1N1CCOCC1` gave a z-score of 0.334.
In the case of `C=CCn1c(SCC(=O)Nc2ccc3c(c2)OCO3)nnc1-c1ccccc1OC`, the z-score is reported as 0.559.
Work on `Cc1ccc(-c2csc(-c3c[nH]c4ccccc34)n2)cc1` yielded a z-score of 0.0181.
For `CC(NS(=O)(=O)c1ccccc1)C1COc2ccccc2O1` (configuration not stated), the z-score was -0.174.
`O=C(NCc1ccco1)c1nn2c(C(F)(F)F)cc(-c3cccs3)nc2c1Br` was tested, and the z-score was -0.597.
In the case of `CCOc1ccc(NC(=O)CC2NCCNC2=O)cc1` (configuration not stated), the z-score is reported as -0.295.
With `COc1cccc(Oc2ccc(N)cn2)c1` the z-score was 0.371.
With `Cc1ccc2c(c1)sc1nc(=O)n(-c3ccc(Cl)c(Cl)c3)c(=O)n12` the z-score was 0.00486.
Compound `COc1cc2c(cc1OC)CN(C(=O)C1(c3ccccc3)CC1)CC2` has a z-score of -0.166.
In the case of `CCOC(=O)c1cc(CC)sc1NC(=O)c1cccc(N2C(=O)CCC2=O)c1`, the z-score is reported as -0.0657.
`O=C(NCc1cccs1)C1CCN(c2ccc(S(=O)(=O)N3CCOCC3)cc2Cl)CC1` was tested, and the z-score was -1.19.
Work on `CCN(CC)S(=O)(=O)c1ccc(N2CCOCC2)c(NC(=O)Cc2ccc(Cl)cc2)c1` yielded a z-score of 0.141.
Compound `CS(=O)(=O)N(CCc1ccccc1)CC(=O)NCc1ccncc1` has a z-score of -0.128.
Work on `CCN(CC)CCNC(=O)C12CC3CC(CC(C3)C1)C2` yielded a z-score of 1.11.
`Cc1ccc(CONC(=O)/N=C/N(C)C)cc1` showed a z-score of -0.115.
For `CCCCCc1nnc(NC(=O)C(=O)OCC)s1`, the z-score was -0.104.
Work on `COc1cc(CCC(=O)Nc2cccc(C(F)(F)F)c2)cc(OC)c1OC` yielded a z-score of -0.00124.
`CCCCc1nnc(NC(=O)C2CC(=O)N(c3ccc4c(c3)OCCO4)C2)s1` (configuration not stated) showed a z-score of 1.43.
Compound `CCN(CC)S(=O)(=O)c1cc(NC(=O)C(=O)c2c(-c3ccccc3)cc3ccccn23)ccc1C` has a z-score of -0.0782.
With `CCCC(=O)Nc1ccc(NC(=S)NC(=O)c2ccccc2[N+](=O)[O-])cc1` the z-score was -0.105.
Work on `CCNC(=S)N(CCc1ccccc1C)Cc1cc2cc(OC)c(OC)cc2[nH]c1=O` yielded a z-score of -0.106.
In the case of `c1cncc(-c2nnc3sc(C4CCCCC4)nn23)c1`, the z-score is reported as -0.392.
With `CC1CCC(C(=O)NC(C(=O)NCCN2CCC(C)CC2)C(C)C)CC1` (configuration not stated) the z-score was -0.179.
With `CC(C)CSc1nc2ccccc2c(=O)[nH]1` the z-score was 0.41.
With `Cc1onc(-c2c(Cl)cccc2Cl)c1C(=O)N1C=CC(C(F)(F)F)=NCC1` the z-score was -0.114.
Work on `COc1ccc(C(=O)NC(=S)N2CC(C)OC(C)C2)cc1` (configuration not stated) yielded a z-score of 0.0339.
`COc1ccccc1NS(=O)(=O)c1ccc(C)c(NC(=O)c2ccc(S(=O)(=O)N3CCCCCC3)cc2)c1` gave a z-score of -0.106.
For `Cc1onc(-c2ccccc2Cl)c1C(=O)Nc1ccccc1C(=O)NC(C)C`, the z-score was -0.742.
`COc1cccc(OC)c1OCC(C)CNCC1CCCO1` (configuration not stated) showed a z-score of -0.0252.
With `COc1cc(OC)c(-c2nn3c(C4CCCCC4)nnc3s2)cc1OC` the z-score was -1.67.
In the case of `CCNC(=S)NNC(=O)c1csc2c1CCCC2`, the z-score is reported as -0.209.
Compound `COC(=O)c1c(C)nn(-c2ccccc2)c1-n1cccc1` has a z-score of -0.366.
Work on `O=C(Nc1ccccc1)N(O)c1ccc(Cl)cc1` yielded a z-score of 0.164.
Work on `Cc1cc(/C=N/n2cnnc2)c(C)n1-c1ccc2c(c1)OCO2` yielded a z-score of -0.329.
With `CCCC1=Nc2cc(C(=O)NCCCOC(C)C)ccc2Sc2ccccc21` the z-score was -0.218.
With `Cc1ccc(CN2CCN(c3ncccn3)CC2)o1` the z-score was 0.689.
Work on `Cc1ccc(-c2noc(CN3CCN(Cc4ccccc4)CC3)n2)cc1` yielded a z-score of 0.161.
Work on `CC(C)OC(=O)CCCCCN1C(=O)CSC1=S` yielded a z-score of 0.0501.
Compound `CC(C)=NNc1nc(-c2ccccc2)cs1` has a z-score of -0.203.
With `COc1ccc(NC(=O)/C(C#N)=C/c2ccc(Br)o2)cc1` the z-score was 0.17.
With `Cc1nc2c(cc1C#N)C(=O)c1ccccc1-2` the z-score was -0.0645.
Compound `CC(=O)Nc1cccc(OC(=O)N2CCOCC2)c1` has a z-score of -0.0852.
`C=CCn1c(SCC(=O)Nc2sccc2C(N)=O)nc2sc(CC)cc2c1=O` gave a z-score of -1.15.
`COc1ccc(CCNC(=O)NC23CC4CC(CC(C4)C2)C3)cc1` showed a z-score of 0.569.
`O=C(NCCC1=CCCCC1)C1CCN(S(=O)(=O)c2cnc[nH]2)CC1` showed a z-score of -1.18.
In the case of `COc1ccc(OC)c(S(=O)(=O)N2CCC(C(=O)Nc3cc(C)ccc3C)CC2)c1`, the z-score is reported as -0.034.
`CCOC(=O)c1c(NC(=O)c2c(Br)cnn2C)c(C#N)nn1-c1ccccc1` was tested, and the z-score was -0.287.
With `Cc1[nH]c(=O)c(C#N)c2c1CSC(C)(C)C2` the z-score was -0.624.
`Cc1ccc(SCC(=O)N(Cc2nc(-c3ccccc3)no2)C(C)C)cc1` showed a z-score of -0.437.
`NNC(=O)CNC(c1ccccc1)c1cc(Br)ccc1NC(=O)CCN1CCOCC1` (configuration not stated) was tested, and the z-score was -0.177.
`NS(=O)(=O)c1ccc(CCNC(=O)c2cncc(Br)c2)cc1` gave a z-score of 0.213.
